44 sequences from the supplement of paper PMC11417369 can be followed below.

The other results are listed elsewhere or left out.

For this assay, the system named is PfHDP1 homeodomain (GST-tagged). The experiment in a line: gcPBM binding intensity (ln(normalized median fluorescence intensity)); higher = stronger DNA binding. The method in brief: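 Binding of GST-tagged P. falciparum DNA-binding domains, expressed in E. coli and used at about 25 μg on average, was carried out for 1 h in 1× PBS containing 1% milk, 0.2 mg/ml BSA, 0.5% salmon testes DNA and 0.03% Triton X-100. The target was an Agilent 4 × 180k array of primer-extended double-stranded 36-bp intergenic genomic probes plus negative controls, read with Alexa488 anti-GST antibody at 488 nm. Binding intensity is the highest Masliner-normalised natural-log median intensity across replicate spots of either probe orientation.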
On to “ATAAATGACAGACACACACACAAAAAAAAAAAACAA [CACACA_site2626]”, for which the “gcPBM binding intensity (ln)” value was 6.49.

As for “ACCCTATCTGTAACTACACACCGCATATTGTTTACT [CACACA_site5661]”, the “gcPBM binding intensity (ln)” value was 7.2.

“TTTTTATCTTTGCTGTGTACATAAATAAAAATAACT [XGTACX_site7625]”: the “gcPBM binding intensity (ln)” value was 6.66.

As to “CTTCTGTAATTATCACGTACATATAATAATTAAAAT [XGTACX_site8973]”, the “gcPBM binding intensity (ln)” value amounted to 6.65.

Regarding “TTGTGTTTGAAAAAATGTACATGTGTCTTACAACAA [XGTACX_site8371]”, the “gcPBM binding intensity (ln)” value was 6.32.

With “TTATACAGATATTTAACACACATTTTATAAAGTGCC [CACACA_site4851]”, the “gcPBM binding intensity (ln)” value was determined as 6.34.

On to “TTACGCGCTTATTACACACACATACAAATAAGGATT [CACACA_site3486]”, for which the “gcPBM binding intensity (ln)” value was 7.21.

For “AAAAATAAAAAAAATACATGCAATGAAACATTTATT [TGCATGCA_site263]”, the “gcPBM binding intensity (ln)” value is 6.14.

Take “AACAAAATAAAAAAAACATGCAAGAATTCTTATATG [TGCATGCA_site714]”: the “gcPBM binding intensity (ln)” value is 6.53.

As to “ATTTGTATTGTATATGCACACATAGAACACTTTTTT [CACACA_site9373]”, the “gcPBM binding intensity (ln)” value was found to be 9.69.

As to “TATATATATTTATGTACACACACACCGATAAATAAA [CACACA_site4404]”, the “gcPBM binding intensity (ln)” value was determined as 7.22.

Regarding “TATAACATATGACACACACACATACATACACAAAAA [CACACA_site6935]”, the “gcPBM binding intensity (ln)” value is 7.23.

With “ATAACAACCCAATGTTGTACATTTAAATATAACGTA [XGTACX_site7114]”, the “gcPBM binding intensity (ln)” value came out at 6.48.

Take TTCTAAAATTATATAGTGCAATTATATTAATTTTTC: the “gcPBM binding intensity (ln)” value was 8.98.

For the sequence “TTTTATACATAAATATGTACGTATATATAATGAATT [XGTACX_site1337]”, the “gcPBM binding intensity (ln)” value was determined as 6.31.

Turning to “ACAATTTATATTATATGTACTTAAAAAGTTCGTAAA [XGTACX_site6421]”, the “gcPBM binding intensity (ln)” value was determined as 6.09.

“GCCTCATCGTAGCAGTGTACGTTTTTTTTTTTTTTT [XGTACX_site8648]”: the “gcPBM binding intensity (ln)” value turned out to be 6.73.

With “TAATAAATGGCTAGTTGTACAGAAATATAAATATTA [XGTACX_site4579]”, the “gcPBM binding intensity (ln)” value was 5.99.

With “AGATTCAAAAATAAAACATGCAAAAATAAAACGTGC [TGCATGCA_site501]”, the “gcPBM binding intensity (ln)” value stood at 7.02.

For “ATAAATAAAAACACAAAACAAAACAAAACAAAACAA [CACACA_negctrl_site1257]”, the “gcPBM binding intensity (ln)” value was 6.61.

ATATATATTGTACTAGTGCATATATATACATATATT: the “gcPBM binding intensity (ln)” value came out at 8.57.

With “TTTCATCTATATGAAACACACAAAGGAAAAAAAATT [CACACA_site7869]”, the “gcPBM binding intensity (ln)” value came out at 6.77.

As for “ATATATATAATATAATGTACATATATTTTATTTTTA [XGTACX_site3819]”, the “gcPBM binding intensity (ln)” value came out at 6.89.

For the sequence “ACGTATTAGATAAATACACACACAAGCATATATTTT [CACACA_site9135]”, the “gcPBM binding intensity (ln)” value turned out to be 6.57.

Turning to “TAATGTATTATATTTAGTACATATAAAAATAATTTT [XGTACX_site6886]”, the “gcPBM binding intensity (ln)” value stood at 6.24.

With “ATATATTAATTTAATTGTACGAATAAAAAAAAAAAA [XGTACX_site223]”, the “gcPBM binding intensity (ln)” value amounted to 6.71.

With “TATATACATTTATGTACACACACATATATGTATATT [CACACA_site8971]”, the “gcPBM binding intensity (ln)” value amounted to 6.61.

In the case of “AAAGCACCCAAGAATACACACAAATATTATAAAAAA [CACACA_site111]”, the “gcPBM binding intensity (ln)” value was 6.66.

As to “AAAATTGTTATTTTATGTACTTATATTTATTTATTT [XGTACX_site3478]”, the “gcPBM binding intensity (ln)” value was determined as 6.

With “GTAGGATTTTCTTTTGTGCGCAATATAAAAAGAAAA [GTGCAC_site9514]”, the “gcPBM binding intensity (ln)” value came to 7.6.

Take “AAAAGGTATGTTATACATAGATATGCACATATATGT [TGCATGCA_negctrl_site96]”: the “gcPBM binding intensity (ln)” value was 9.64.

Consider “ATTAATATAAAAAGGTAAATGGATGTAATATATATA [XGTACX_negctrl_site2]”, for which the “gcPBM binding intensity (ln)” value was determined as 7.03.

For “TCGTAATTTTTTTTTATATATTAGGAATTTATAAAA [XGTACX_negctrl_site409]”, the “gcPBM binding intensity (ln)” value is 6.18.

For “TAATACCATTGTCATGCATGCACATTATTACTCTAA [TGCATGCA_site160]”, the “gcPBM binding intensity (ln)” value worked out at 7.97.

“ATATTATATTTCTTTTGTACATATTATATAATATAT [XGTACX_site7198]”: the “gcPBM binding intensity (ln)” value came to 6.94.

Consider “TTTTTTTTGTGTATTTGTACATAATATATATATATA [XGTACX_site7092]”, for which the “gcPBM binding intensity (ln)” value was 8.47.

In the case of “TGAAAAGGAAAATTTTGTACATATACATCAAGGATA [XGTACX_site656]”, the “gcPBM binding intensity (ln)” value was 6.38.

For “TACATGAATAAACTTACACACACCCATGCATACATA [CACACA_site97]”, the “gcPBM binding intensity (ln)” value turned out to be 6.95.

In the case of “AAAAAAAAGAATTTACGTACTTATTATTTATATTTT [XGTACX_site5701]”, the “gcPBM binding intensity (ln)” value was 6.02.

As for “ACTTTTTATTTTTTACTATATATATATATATATATG [TGCATGCA_negctrl_site463]”, the “gcPBM binding intensity (ln)” value amounted to 7.59.

Consider “ACTAACATATATTCAACACACATATACCTTCAACCC [CACACA_site3011]”, for which the “gcPBM binding intensity (ln)” value was 6.86.

As to “TTTTACAAAGTATGATGTACAAGTATATATAAATAT [XGTACX_site2072]”, the “gcPBM binding intensity (ln)” value came to 6.26.

Regarding CCCATTTAATATTGAGTGCATTTAAATAAATGTATT, the “gcPBM binding intensity (ln)” value is 8.38.

For the sequence “TATATATATATATACACACACACATATATATATATA [CACACA_site774]”, the “gcPBM binding intensity (ln)” value turned out to be 9.31.
